# The full ranking holds about 110,000 compounds; the median of “z-score” is about -0.1, and the highest 2% start at about 2. The list shows a part of the results. Active and inactive are the calls of the source.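 Rule for the calls: active = z-score in the third read window above 3 or below -3; inactive = the rest.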
# Molecular target: Metabotropic glutamate receptor 8 (Rattus norvegicus) (UniProt P70579)
# Test: rat mGluR8 modulators via GIRK flux, primary screen, cell-based, thallium flux, HTS (AID 488969)
# Settings: HEK293 rat mGluR8, GIRK (G protein-gated inwardly rectifying potassium channel) thallium flux, FluoZin2; at 10 µM; stronger effect = higher value; submaximal glutamate (EC20) added with thallium
# Chain of UniProt P70579 (P70579 whole entry, looked up): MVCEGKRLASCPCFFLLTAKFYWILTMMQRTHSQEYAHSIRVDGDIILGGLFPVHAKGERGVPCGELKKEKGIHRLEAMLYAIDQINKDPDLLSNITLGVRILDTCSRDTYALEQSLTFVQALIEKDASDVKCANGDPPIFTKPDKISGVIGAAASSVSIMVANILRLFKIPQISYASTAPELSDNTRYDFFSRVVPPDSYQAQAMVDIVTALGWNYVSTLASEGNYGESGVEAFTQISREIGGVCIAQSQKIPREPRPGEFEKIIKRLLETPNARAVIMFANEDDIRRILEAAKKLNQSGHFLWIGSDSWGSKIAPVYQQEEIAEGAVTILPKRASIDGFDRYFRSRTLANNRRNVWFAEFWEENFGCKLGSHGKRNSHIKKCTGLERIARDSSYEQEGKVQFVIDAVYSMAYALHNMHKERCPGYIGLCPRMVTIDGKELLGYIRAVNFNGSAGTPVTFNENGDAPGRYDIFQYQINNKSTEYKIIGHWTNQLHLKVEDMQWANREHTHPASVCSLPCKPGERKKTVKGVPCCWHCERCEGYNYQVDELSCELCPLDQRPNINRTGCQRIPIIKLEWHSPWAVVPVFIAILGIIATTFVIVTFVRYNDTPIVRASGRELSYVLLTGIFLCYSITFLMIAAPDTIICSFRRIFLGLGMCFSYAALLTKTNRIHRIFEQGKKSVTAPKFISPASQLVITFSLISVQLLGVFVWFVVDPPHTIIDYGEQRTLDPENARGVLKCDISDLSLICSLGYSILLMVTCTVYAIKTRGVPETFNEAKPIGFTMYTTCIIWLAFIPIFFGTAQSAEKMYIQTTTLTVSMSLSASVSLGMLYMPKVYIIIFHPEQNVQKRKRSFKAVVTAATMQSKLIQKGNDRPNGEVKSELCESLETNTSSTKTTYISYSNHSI
row,Structure (SMILES),z-score
1,O=[N+]([O-])c1ccc(Oc2ccc(S(=O)(=O)N3CCCCC3)cc2)cc1,0.0199
2,NS(=O)(=O)c1ccc(NCc2cc(Cl)ccc2OCc2ccccc2F)cc1,-0.074
3,Cc1c(Cc2ccccc2)c(=O)oc2cc(OCC(=O)c3ccccc3)ccc12,-0.276
4,C=CCn1c(SCC(=O)N2CCCCC2)nc(O)cc1=O,0.59
5,O=C(CCC(=O)NC1CCCCCC1)Nc1nnc(C(F)(F)F)s1,-0.133
6,O=c1[nH]c(NCc2ccco2)nnc1Cc1ccccc1Cl,-0.29
7,CC1N=C2c3ccccc3N=C(SCc3cc(=O)n4cc(Cl)ccc4n3)N2C1=O (centres undefined),-1.82
8,Cc1ccccc1-n1c(-c2csc(C)c2C)n[nH]c1=S,-0.0223
9,CC(C)(C)C(=O)Cn1c(=N)n(Cc2ccccc2Cl)c2ccccc21,1.8
10,Cc1ccc(-c2nn(C)c(=O)c3ccccc23)cc1S(=O)(=O)NCCN1CCOCC1,0.0109
11,O=C(NC(Cc1c[nH]c2ccccc12)c1nnc2n1CCCCC2)c1ccccc1 (centres undefined),0.155
12,CC(C)Cc1nc2oc3c(NCC4CCCO4)ncnc3c2c2c1CCC2 (centres undefined),-1.17
13,Cn1c(CC(=O)Nc2ccccc2)nnc1SCC(=O)c1ccccc1,-0.152
14,Cc1sc(NC(=O)c2oc3ccccc3c2C)c(C#N)c1C,1.76
15,COC(=O)c1ccc(CNC(=O)COc2ccccc2Br)o1,0.0873
16,Cc1cc(C(=O)CSc2nc3ccccc3c(=O)[nH]2)c(C)n1C,-0.296
17,CCCCCNc1nc(NCCCO)c(C#N)c2c1CN(C)CC2,-0.528
18,Cc1cccc(C(=O)N/N=C/c2ccccn2)c1,-0.473
19,O=S(=O)(c1cccs1)N1CCCc2cccc(O)c21,-0.229
20,CCOC(=O)CCSc1nc(C)c2cc(C)ccc2n1,-0.619
21,CCOC(=O)c1csc(NC(=O)CSc2nnnn2-c2ccc3c(c2)OCCO3)n1,-0.588
22,Cc1ccc(S(=O)(=O)Nc2ccc(NC(=O)Nc3cccc(C(F)(F)F)c3)cc2)cc1,-0.0732

row,Structure (SMILES),z-score
1,CCOC(=O)C1=C(C)NC(=S)NC1c1ccc(OC(=O)c2ccco2)cc1 (centres undefined),-0.4
2,COC(=O)c1cccc(NC(=O)c2nn(C(C)C)c(=O)c3ccccc23)c1,-0.226
3,NC(=O)C1CCN(c2nc(-c3ccccc3)nc3ccccc23)CC1,0.964
4,CC(C)c1cc(C(F)(F)F)n2nc(C(=O)Nc3ccc4c(c3)OCO4)cc2n1,active: 4.57
5,N/C(=N\OC(=O)c1ccc(Cl)c(Cl)c1)c1ccccn1,-0.312
6,Cc1ccc(/C=C(\NC(=O)c2ccc(C)cc2)c2nc(=S)[nH][nH]2)cc1,0.31
7,Cc1ccc(/C=N/n2c(C3CCCCC3)n[nH]c2=S)s1,0.644
8,COc1ccc2c(c1)C1CC(C)(NC(=O)C1S(=O)(=O)c1ccc(F)cc1)O2 (centres undefined),0.102
9,COc1cccc(C(=O)NCCN2CCOCC2)c1,-0.427
10,O=C(CCC(=O)Nc1ccccc1)NCCO,0.33
11,Cc1ccccc1-c1nc(CS(=O)CC(=O)NCCN2CCOCC2)c(C)o1 (centres undefined),-0.705
12,COc1ccccc1C(OC(=O)c1cccs1)C(=O)NCC1CCCO1 (centres undefined),-0.383
13,COc1ccc(NC(C)=O)cc1NC(=O)CSc1nnc(-c2ccccc2)n1N,0.00205
14,CC(C)c1ccc(N2CC(C(=O)Nc3nccs3)CC2=O)cc1 (centres undefined),-1.9
15,CS(=O)(=O)NCCSCc1c(Cl)cccc1Cl,-0.0833
16,CSc1nsc(SC)c1C(=O)NCCNS(=O)(=O)c1ccc(C)cc1,-0.3
17,O=C(CNC(=O)c1ccc(Cl)cc1Cl)OCC(=O)c1ccc2c(c1)OCCO2,-1.64
18,CN(C)c1ccc(C2C3=C(CCCC3=O)OC3=C2C(=O)CCC3)cc1,0.0253
19,Cc1cc(C)n(-c2nc3nonc3nc2Nc2cccc(C)c2C)n1,0.723
20,Cn1c(CN2CCCCC2)nc2cc(NS(=O)(=O)c3ccc(Cl)cc3)ccc21,-0.00564
21,Cc1ccc(C2CC(c3ccco3)=NN2S(C)(=O)=O)cc1 (centres undefined),0.339
22,CC1CCCC(C)N1S(=O)(=O)c1ccc(S(=O)(=O)NCCc2ccncc2)cc1 (centres undefined),-0.221

row,Structure (SMILES),z-score
1,Cc1ccc(NC(=O)C2CC(=O)n3ncnc3N2)cc1 (centres undefined),-0.235
2,Cc1sc2nc(CSc3ccc([N+](=O)[O-])c(C(F)(F)F)c3)[nH]c(=O)c2c1C,-0.255
3,COc1ccc(C2CC(=O)N3CN(c4ccc(C)c(Cl)c4)CSC3=C2C#N)cc1 (centres undefined),-0.0211
4,CCOC(CNC(=O)CCc1c(C)nc2nc(C)nn2c1C)OCC,-0.308
5,Cc1nc2sc(C(=O)O)c(N)c2c2c1COC(C)(C)C2,-0.201
6,COc1ccc(CNC(=O)c2c(C)cc(=O)oc2C)cc1OC,-1.14
7,COc1ccc(C(=O)N/C(=C\c2cccc3ccccc23)C(=O)NCCc2c[nH]c3ccccc23)cc1OC,-1.59
8,Cc1cccc(C(=O)Nc2nccs2)c1[N+](=O)[O-],-0.0652
9,CC12CC3CC(C)(C1)CC(CN1CCOCC1)(C3)C2,-0.06
10,COc1ccc(/C=C2/SC(=O)N(CCC(=O)Nc3ccc(C)cc3)C2=O)cc1OC,-0.582
11,CCOC(=O)Cn1nnnc1CN(Cc1ccc(OC)cc1)Cc1cc2cc(C)cc(C)c2[nH]c1=O,0.139
12,Cc1ccccc1CSCCNC(=O)c1ccc(Cl)c(S(=O)(=O)N2CCOCC2)c1,-0.66
13,Cc1nc2nc(-c3cccnc3)[nH]n2c(=O)c1C,0.355
14,CC1=C(C(=O)Nc2ccc(F)cc2)C(c2ccc(C)o2)C2=C(CC(C)(C)CC2=O)N1 (centres undefined),0.288
15,COCCNC(=O)C(c1ccccc1C)N(C(=O)Cn1nnc2ccccc21)c1cccnc1 (centres undefined),-0.094
16,CCN1CCN(c2nc(-c3ccccn3)nc3ccccc23)CC1,-0.254
17,O=C(CN1CCN(c2ccccc2F)CC1)Nc1ccccc1F,-0.273
18,Cc1ccccc1CSCC(=O)N1CCN(c2ccccc2)CC1,-0.594
19,NC(=O)CN1CCOCCOCCN(CC(N)=O)CCOCCOCC1,0.22
20,Cc1nn(C(C)C(=O)N2CCc3ccccc32)c(C)c1[N+](=O)[O-] (centres undefined),-0.0522
21,CCN(CC)S(=O)(=O)c1ccc(C(=O)NCc2n[nH]c(=S)n2Cc2ccccc2)cc1,-0.285
22,CN(Cc1ccccc1)c1nc(N)c([N+](=O)[O-])c(NCc2ccccc2)n1,-0.101

row,Structure (SMILES),z-score
1,COc1ccc(N/C(=C(/C(Cl)=C(Cl)Cl)[N+](=O)[O-])n2nnc3ccccc32)cc1,-0.744
2,COC(=O)COc1cccc(NC(=O)c2cccs2)c1,-0.153
3,Cc1ccccc1Cn1cc(S(=O)(=O)CC(=O)N2CCCCC2)c2ccccc21,0.628
4,N#Cc1c(Oc2ccc3ccccc3c2)sc(C(=O)c2ccccc2)c1N,0.028
5,CCOC(=O)c1sc(NC(=O)CSc2nnnn2-c2ccc(C)cc2C)nc1C,-0.499
6,CC(=O)N1CCc2cc(Br)cc(S(=O)(=O)NCCN3CCCCC3C)c21 (centres undefined),0.632
7,O=C(NCCC1=CCCCC1)C1CCN(Cc2cnn(-c3ccccc3)c2-n2cccc2)CC1,0.122
8,N#CCCN1CCN(S(=O)(=O)c2ccc3c(c2)OCCCO3)CC1,-0.473
9,CCn1cc(C(=O)N/N=C(/C)c2ccc(F)cc2)c(=O)c2cc(F)c(N3CCCC3)cc21,-0.438
10,CCC(NC(=O)Nc1ccc(O)cc1)(C(F)(F)F)C(F)(F)F,0.671
11,Cc1ccc2cccc(S(=O)(=O)NC3CCS(=O)(=O)C3)c2n1 (centres undefined),-0.155
12,CNC(=O)CSCc1cnn(-c2ccccc2)c1-n1cccc1,0.052
13,O=C(Nc1cc(C(F)(F)F)ccc1N1CCOCC1)c1cccnc1Cl,0.268
14,COc1ccc(CNC(=O)Nc2cccc(C(F)(F)F)c2)cc1OC,0.532
15,CCOc1ccc(N(CC(=O)NC2CCCC2)C(=O)CSc2nnc(COc3ccccc3)o2)cc1,-0.322
16,O=C(/C=C/c1ccc(Cl)cc1Cl)NC(=S)Nc1ccccn1,0.635
17,COc1cccc(C(C#N)N2CCOCC2)c1 (centres undefined),-0.0772
18,O=C1CC(c2ccccc2Cl)Cc2c1cnn2-c1nc2ccccc2s1 (centres undefined),0.242
19,Cc1nc2sc(C(c3ccco3)N3CCOCC3)c(O)n2n1 (centres undefined),0.165
20,Cc1cc(C)c2c(c1)SC1=NC(c3ccccc3)(C(F)(F)F)NC(=O)N12 (centres undefined),-0.482
21,Cn1nc(-c2ccccc2)c(-c2nc(-c3cccc(C(F)(F)F)c3)no2)c1Cl,0.362
22,CCOC(=O)c1ccccc1NC(=O)c1ccccc1NS(C)(=O)=O,-0.268

row,Structure (SMILES),z-score
1,O=C(CSCc1ccc(Cl)c(Cl)c1)Nc1c[nH]c(=O)[nH]c1=O,-0.198
2,COc1ccc(Nc2nc(S(=O)(=O)c3ccc(C)cc3)c(Cl)s2)cc1,0.0796
3,CCOC(=O)C(C)n1cnc2sc(C)c(C)c2c1=O (centres undefined),-0.0783
4,CC(C)(C)c1cccc(Oc2nn[nH]n2)c1,-0.526
5,COCC(=O)N(C)c1nnc(-c2ccccn2)s1,0.142
6,CC(=O)N1CCc2cc(Br)cc(S(=O)(=O)N3CCCCCC3)c21,1.47
7,C=CCn1c(COc2ccccc2)nnc1SCC(=O)Nc1ccc2c(c1)OCCO2,-0.529
8,Cc1nc2ccc(C(=O)O)cc2c2c1CC(C)S2 (centres undefined),0.154
9,O=C(NCCc1cccc(Cl)c1)c1cc([N+](=O)[O-])ccc1Cl,-0.16
10,CC(=O)c1cc(C#N)c(Oc2ccccc2)nc1C,-0.109
11,COCCOC(=O)C1=C(C)NC(=O)NC1c1c(Cl)nc2ccccn2c1=O (centres undefined),0.0414
12,Cc1ccc(/C=N/n2cnc3sc(-c4ccccc4)cc3c2=O)o1,-0.579
13,O=S(=O)(Nc1nc(-c2sccc2Cl)cs1)c1cc(Cl)ccc1Cl,active: 3.41
14,CCCCC(=O)Nc1cccc(NC(=S)NC(=O)Cc2ccccc2)c1,-0.551
15,COc1ccc(-c2nnnn2C)cc1S(=O)(=O)NCCc1ccccc1,1.29
16,Cc1ccsc1/C=N/NC(=O)c1ccc2nc[nH]c2c1,-0.151
17,COc1ccc(C(=O)Nn2c(SCc3ccc([N+](=O)[O-])cc3)nc3ccccc3c2=O)cc1,0.0699
18,COc1ccc(OC)c(N2CC(O)=C(c3nc4ccccc4s3)C2=N)c1,-0.71
19,CC(=O)Nc1ccc(C(=O)N(C)c2ccccc2)cc1,-0.095
20,CCn1c(SCC(=O)Nc2ccc(S(N)(=O)=O)cc2)nnc1-c1cccc(OC)c1,0.0875
21,CCOC(=O)CN1C2=NCCN2c2ccccc21,-0.058

# Source: PubChem BioAssay AID488969 (Vanderbilt High Throughput Screening Facility, 2010)
